56 sequences from the supplement of paper PMC11417369 can be followed below.

The other results are listed elsewhere or left out.

In the assay the test system is PfHDP1 homeodomain (GST-tagged). Nature of the assay: gcPBM binding intensity (ln(normalized median fluorescence intensity)); higher = stronger DNA binding. In a few lines: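 GST-tagged P. falciparum DNA-binding domains, expressed in E. coli (about 25 μg on average), were applied for 1 h to an Agilent 4 × 180k array of primer-extended double-stranded 36-bp intergenic genomic probes plus negative controls. The binding buffer was 1× PBS with 1% milk, 0.2 mg/ml BSA, 0.5% salmon testes DNA and 0.03% Triton X-100. Bound protein was detected with Alexa488 anti-GST antibody and scanned at 488 nm. Binding intensity is the highest Masliner-normalised natural-log median intensity across replicate spots of either probe orientation.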
In the case of “AAAAAATTAACCGTAACACACACACCGATATATATA [CACACA_site9312]”, the “gcPBM binding intensity (ln)” value was determined as 6.8. With “AATCTAGGTATTTATACACACTAAAATAATATACGA [CACACA_site4515]”, the “gcPBM binding intensity (ln)” value is 6.51. Consider “AAAAAAAAAAGAAACACACACATATAGATTTATAAC [CACACA_site6927]”, for which the “gcPBM binding intensity (ln)” value stood at 6.81. With “GCTCTAATTAATATTTGTACACACATATTTAACCTA [XGTACX_site6808]”, the “gcPBM binding intensity (ln)” value worked out at 6.87. Regarding “ATAATCCTTAGACACACACACACACGAATAAATAAA [CACACA_site6364]”, the “gcPBM binding intensity (ln)” value was 6.84.

“CGAAAAAATAAAAAAAAAATAAAATAAAATAAATAA [TGCATGCA_negctrl_site278]”: the “gcPBM binding intensity (ln)” value is 6.11. Then “CAATATATTTGATTTACACACTTACAATGTATTTAA [CACACA_site5632]”, with 6.63; and “TTATACTGTACAAAAAGAATAGCAGTATAACAAAAA [CACACA_negctrl_site755]”, with 6.97. Then “AAAAAAAAATCATATTGTACGTAAAAAAAAAAAAAA [XGTACX_site476]”, with 6.39; and “AATATGTTTTGTTAGGTTGGTGTTGGTAGAATGTTT [CACACA_negctrl_site1563]”, with 6.74. Regarding “ACAGGATTGGTTCAAACACACATATTATAGGACTAT [CACACA_site6455]”, the “gcPBM binding intensity (ln)” value came out at 6.53. The value for “AAAAAACATTTGATCTGTACGCATAGACAATTATAT [XGTACX_site960]” was 6.3; that for “AATAATATGTTATCTCTTACACATATAAAAAATAAA [XGTACX_negctrl_site370]” was 6.12; that for “TAAAAGAAAGCACATACACACACAAAAAAAAAAAAG [CACACA_site8159]” was 6.58. The value for “TCTGTAAATATGTATACACACATATATGATCAATAT [CACACA_site3234]” was 6.99; that for “AGTAGAAAAGGAACATGTACGAATTAAAAAAATAAT [XGTACX_site2347]” was 6.8. Take “AATTAAATGATTTATACATGCATATAAATATAAATA [TGCATGCA_site579]”: the “gcPBM binding intensity (ln)” value was determined as 6.26. Then “TACACCATGATACATACACACAGACATATACACATT [CACACA_site6601]”, with 7.04; and “ACATATATATATATATATATATATATATTTATTTAT [CACACA_negctrl_site734]”, with 7.3. The value for “AGAAAAAAAATGTATACACACAAATATAAAGAAGGA [CACACA_site3806]” was 7.09; that for “AAAATTAATAAATGAGAAAAAAGGATGAATAATGAG [CACACA_negctrl_site1614]” was 7.17. In the case of “AAACGTGCGTATATGTGTACGCATATATATATATAT [XGTACX_site5252]”, the “gcPBM binding intensity (ln)” value was found to be 9.26. Then “TTTATTAATTAAACCATACACACATAATTTTTTTAT [CACACA_site842]”, with 6.66; and “TAAAAAATTATAAAATGTACATAAAAAAAAAAAAAA [XGTACX_site3376]”, with 6.51; and “AAAGCACGCAAGAATACACACAAATATTATAAAAAA [CACACA_site6206]”, with 6.55. The value for “ATCCCAGTAATATATAGTACATAACTATAAGAGAAT [XGTACX_site6909]” was 6.93.

On to “AGGAAAACAAAAGATGCATGCTAATTTTCCTCGCGT [TGCATGCA_site627]”, for which the “gcPBM binding intensity (ln)” value stood at 6.31. Then “CTGAAGAAACTACAACGTACAAAATATGTATATATT [XGTACX_site3779]”, with 6.35. Then “ATATTTTTTAGGGTCACACATACTTATTATATAAAT [CACACA_site4926]”, with 6.71; and “AATATTTAACACCTTATACACACTTTCTTCCTTTTT [CACACA_site785]”, with 6.92; and “TATGATGAGATAACAAAAGTTGTACTTTTTTTTTTT [CACACA_negctrl_site1172]”, with 6.

In the case of “CATATATACTCATACACACACACACCGACACAGACA [CACACA_site5026]”, the “gcPBM binding intensity (ln)” value amounted to 7.27. Regarding “ATGATATGGATAAATACACACAATATAATAATGTCT [CACACA_site1433]”, the “gcPBM binding intensity (ln)” value turned out to be 6.58. Then “CACAAACAAAGACACACACACACACGCACAAAAATG [CACACA_site7193]”, with 7.45. Then “CAAATAGCTAGCTGTGCACACAAACATATTTTCCAA [CACACA_site879]”, with 11; and “AAAATGCATTTGATGTGTACGCATTATAAAGAACAA [XGTACX_site4203]”, with 7.39. Then “ATGGAAATAAAAAAAAAAAAAAAAAAAAATATATAT [GTGCAC_negctrl_site67]”, with 6.36; and “TAGCCCACATTTAATGGTACAGTGAGTATATATATG [XGTACX_site8044]”, with 6.62. As for “TAATATATTTATAGAGCATGCAACGTAATATTATTA [TGCATGCA_site863]”, the “gcPBM binding intensity (ln)” value was 7.61.

Consider “TACATAAAATACCATGCATGCTAGTAAAAAAAAAAA [TGCATGCA_site650]”, for which the “gcPBM binding intensity (ln)” value worked out at 6.04. The value for “TCTTTTCTTTTGTGTGTGCACATATAAGCATGAAAC [GTGCAC_site9910]” was 10.4; that for “TTATTTTTTGTATGAACACACAACTTAATTATGATG [CACACA_site2448]” was 6.67. The value for “ATGTTTCTATAGATTTGTACATATTTCATATGAATA [XGTACX_site1053]” was 6.78; that for “TTTTACAAATATTTCTGTACACATTCTCATATAATT [XGTACX_site1974]” was 7.04; that for “TTTTTTAATTAATTACCTTTGAATGTGTATTAGGAC [GTGCAC_negctrl_site651]” was 6.88.

Turning to “ATAGCATTTCACAAATGTACATAAAAAAATAAAAAT [XGTACX_site402]”, the “gcPBM binding intensity (ln)” value was determined as 6.91. Then “AAATGACGAAATAAAATCATAAATTAAAATAAATAA [CACACA_negctrl_site655]”, with 6.26. The value for “TAAAACAAAATGGTAACACACACATATATATATATA [CACACA_site8590]” was 9.2; that for “AAATGGAAATTAATATGTACATATTTATAAGTATGA [XGTACX_site1774]” was 6.6. The value for “TCCTATCATTTATATTTTACTACATAATATTGATAA [GTGCAC_negctrl_site286]” was 6.41; that for “AATATATAAATATATATAAATAAATATATATATAAA [CACACA_negctrl_site49]” was 5.93. Consider GTATTCATTCCTTGAGTGCAATTGCAATAAATAAAA, for which the “gcPBM binding intensity (ln)” value turned out to be 10.7.

As to “CATATTAAGATGTGTACACATTTTTATTTTTTTTTT [CACACA_site4425]”, the “gcPBM binding intensity (ln)” value worked out at 6.63.

Take “GAAAAGTATAAAAAACGTACAAGTTTTATTTTCACA [XGTACX_site4604]”: the “gcPBM binding intensity (ln)” value is 5.81.

For the sequence “TAAAATAAAAAGTTTACACACATATATAACTTTAAT [CACACA_site6456]”, the “gcPBM binding intensity (ln)” value was determined as 6.24. On to “CCCCTATAAATAGGGTGTACTAATAAATATTTTTAA [XGTACX_site1244]”, for which the “gcPBM binding intensity (ln)” value was found to be 6.77.
